Test results reported in PubChem BioAssay AID493208 (National Center for Advancing Translational Sciences (NCATS), 2011).
Out of some 44,000 compounds screened, about 340 (0.77%) were called active. Not shown: some 5% with an inconclusive outcome. Calls follow the shape of the dose curve; as a rule, active = well fitted inhibition curve with a large enough effect; inconclusive = small, poorly fitted or top-dose-only effect; inactive = flat fitted curve, though single readings scatter. This is one part of the list.

test: Acumen qHTS Assay for Inhibitors of the mTORC1 Signaling Pathway in MEF (Tsc2-/-, p53-/-) Cells: Sytravon; details: phospho-rpS6 immunofluorescence/PI, 24 h; series mostly up to 38.3 µM; activity change, negative = inhibition: at the top concentration; also: nearly all actives have a fitted effect of over 50% in size;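 as to activity change, negative = inhibition: plate controls were DMSO for no effect and rapamycin for full effect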
How it was run: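 Compounds act on Tsc2-/-, p53-/- fibroblasts carrying an empty vector for 24 h before fixation and dual staining for phospho-S6 and DNA (propidium iodide). Values are percentages of cells above a rapamycin-defined pS6/PI threshold.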
Potency is read from the fitted curve at half-maximal effect.

Row | SMILES | activity change, negative = inhibition | Potency
1 | COc1ccc2c(c1)c1c(c(=O)n(Cc3ccccc3)c(=O)n1CC(=O)Nc1ccccc1F)n2C | inactive: -3.49% | 
2 | Cc1cccn2c(=O)cc(COc3ccc(NC(=O)COc4ccc(F)cc4)cc3)nc12 | inactive: -2.17% | 
3 | CNC(=O)C1CCCN(c2nnc(C)c3c(C)n(-c4ccccc4)nc23)C1 (centres undefined) | inactive: -0.247% | 
4 | CCOCCCNC(=O)c1ccc(-c2nc(CS(=O)(=O)c3ccccc3)c(C)o2)cc1 | inactive: -5.26% | 
5 | COc1ccc(-c2nc3sc(CCNC(=O)C(C)(C)C)c(C)n3n2)cc1 | inactive: -0.396% | 
6 | O=C(O)CCc1ccc(-c2ccc(Br)cc2)n1-c1ccccc1O | inactive: 3.84% | 
7 | CCOC(=O)C1CCN(c2cc3c(cc2NC(=O)c2ccccc2Cl)n(C)c(=O)n3C)CC1 | inactive: -0.865% | 
8 | CCCCN(CC)CCNC(=O)Cn1cnc2sc(C)c(S(=O)(=O)N3CCN(c4ccccc4OC)CC3)c2c1=O | inactive: 5.19% | 
9 | CCOc1ccc2nc(N3CCCC(C(=O)NCCc4ccc(OC)cc4OC)C3)sc2c1 (centres undefined) | inactive: -11.1% | 
10 | CCOc1ccc(N2CC(c3nc4ccccc4n3CCOc3ccc(OC)cc3)CC2=O)cc1 (centres undefined) | inactive: 2.25% | 
11 | Cc1cc2nc(-c3ccc(NC(=O)c4ccc(OCC(C)C)cc4)cc3)oc2cc1C | inactive: -11.2% | 
12 | O=C(Nc1ccc(F)c(Cl)c1)c1cc(S(=O)(=O)NCc2ccc3c(c2)OCO3)ccc1F | inactive: -26.6% | 
13 | CCOc1cccc2sc(N(Cc3cccnc3)C(C)=O)nc12 | inactive: -0.645% | 
14 | CC(NC(=O)CCc1cn(Cc2ccccc2Cl)c2ccccc12)c1ccccc1 (centres undefined) | inactive: 0% | 
15 | O=C(NCCc1ccccc1)c1ccc(CSc2nc3cccnc3n2Cc2ccccc2)cc1 | inactive: -18.4% | 
16 | COc1ccc(/C=C/c2nc(C#N)c(N3CCC(C(N)=O)CC3)o2)cc1OC | inactive: -1.14% | 
17 | Cc1c(NC(=O)Nc2cccc(C(F)(F)F)c2)sc2nc3n(c(=O)c12)CCC(C)CC3 (centres undefined) | inactive: -0.948% | 
18 | Cc1ccc(-c2nc(CS(=O)(=O)CC(=O)NC(C)CCc3ccccc3)c(C)o2)cc1 (centres undefined) | inactive: 0.175% | 
19 | O=C(NCCO)C(=O)NCC(c1ccc2c(c1)OCO2)N1CCOCC1 (centres undefined) | inactive: -1.28% | 
20 | O=C(CCS(=O)(=O)c1ccccc1)N(Cc1cccnc1)c1nc2c(F)cccc2s1 |  | active: 3.69 µM
21 | COc1ccc(C(CC(=O)Nc2ccccn2)N2Cc3ccccc3C2=O)cc1OC (centres undefined) | inactive: -2.63% | 
22 | CCOC(=O)c1nnc2c(-c3ccc(Cl)cc3)c(C)nn2c1N | inactive: -0.428% | 
23 | CCc1ccccc1NC(=O)Cn1nnc(C(=O)NCc2ccco2)c1N | inactive: -1.56% | 
24 | CC(=O)Nc1ccc(NC(=O)c2csnn2)cc1 | inactive: -6.09% | 

Row | SMILES | activity change, negative = inhibition | Potency
25 | COCCN1C(=O)N(c2cccc(OC)c2)C(=O)C1CC(=O)Nc1ccccc1 (centres undefined) | inactive: -17.3% | 
26 | O=C(NCc1ccc(Cl)cc1)C(=O)NCC(c1ccc2c(c1)OCO2)N1CCOCC1 (centres undefined) | inactive: -3.49% | 
27 | COc1cc2ccccc2cc1C(=O)N1CCN(c2nc3c(F)cccc3s2)CC1 | inactive: 3.28% | 
28 | CCCCc1nn2c(=O)cc(COC(=O)c3cccc(NC(=O)c4cccs4)c3)nc2s1 | inactive: 0% | 
29 | O=C(c1ccccc1)N1CCC(c2nc3ccccc3o2)CC1 | inactive: -20.7% | 
30 | CC(=O)c1ccc(NC(=O)c2cc3c([nH]c2=O)CC(c2ccccc2)CC3=O)cc1 (centres undefined) | inactive: -1.57% | 
31 | CCOc1ccc2c(c1)c(=O)c(C(=O)c1ccccc1)cn2Cc1ccccc1F | inactive: -1.41% | 
32 | COc1ccc(CCNC(=O)c2cnn(-c3cccc(C)c3)c2C2CCNCC2)cc1OC | inactive: -6.47% | 
33 | CN1C(=O)Cc2cc(S(=O)(=O)CCC(=O)Nc3ccc(Cl)cc3)ccc21 | inactive: 0% | 
34 | CCN(CC)C(=O)c1sc2c(c1C)c(=O)n(-c1ccc(C)c(C)c1)c(=O)n2CC(=O)Nc1ccc(OC)cc1OC | inactive: 2.58% | 
35 | Cc1cc(F)ccc1NC(=O)CCS(=O)(=O)c1cc2c3c(c1)CCN3C(=O)CC2 | inactive: 0.634% | 
36 | COc1ccc(OC)c(CNS(=O)(=O)c2cc(-c3onc(C)c3C)ccc2C)c1 | inactive: -6.27% | 
37 | Cc1cc(C)n2c(Nc3ccc4c(c3)OCCO4)c(-c3ccccc3)nc2n1 | inactive: -9.03% | 
38 | COc1ccc(N2CCN(CCCNC(=O)c3nnc(Cc4ccccc4Cl)o3)CC2)cc1 | inactive: -23.1% | 
39 | CC(=O)c1ccc(NC(=O)CSc2nnc(-c3ccncc3)n2-c2ccccc2)cc1 | inactive: -7.39% | 
40 | COc1ccc(/C=C/C(=O)Nc2cc(-c3nc4ccccc4o3)ccc2OC)cc1 | inactive: 5.56% | 
41 | Cc1ccc(S(=O)(=O)c2[nH]c(-c3ccccc3)nc2SC(C)C(=O)O)cc1 (centres undefined) | inactive: 1.16% | 
42 | FC(F)(F)c1cccc(N2CCN(c3nc4ccccc4n4cnnc34)CC2)c1 | inactive: -0.598% | 
43 | COc1ccc(-n2c(SC)nc3sc4c(c3c2=O)CCN(C(C)=O)C4)cc1 | inactive: 0% | 
44 | Cc1ccc(NC(=O)CSc2nnc(-c3cc4occc4n3C)n2-c2ccccc2C)c(C)c1 | inactive: -12.1% | 
45 | COc1ccc(CNC(=O)C2CCN(C(=O)c3cnn(-c4ccccc4)c3-n3cccc3)CC2)cc1 | inactive: -0.766% | 
46 | Cc1ccn2c(=O)cc(COc3ccc(NC(=O)C(C)(C)C)cc3)nc2c1 | inactive: 1.11% | 
47 | Cc1ccc2c(c1)N(C(=O)Nc1ccc(Br)cc1F)CCO2 | inactive: -5.23% | 
48 | COC(=O)c1ccccc1NC(=O)CSc1n[nH]c(C)n1 | inactive: -2.71% | 

Row | SMILES | activity change, negative = inhibition | Potency
49 | O=c1c2sc3ccccc3c2n(Cc2cccc(C(F)(F)F)c2)c(=O)n1-c1ccccc1 | inactive: 3.1% | 
50 | CC(C)Oc1ccc(CNC(=O)CN2C(=O)c3cccnc3Oc3ccc(Cl)cc32)cc1 | inactive: -5.75% | 
51 | CCS(=O)(=O)N1CCc2cc(C(=O)NC(C)c3ccccc3)ccc21 (centres undefined) | inactive: -2.93% | 
52 | COc1ccc(S(=O)(=O)c2cc3cc(C(C)(C)C)cc(O)c3oc2=O)cc1 | inactive: -10.6% | 
53 | Cn1c(COc2ccccc2C(C)(C)C)nc2ccccc21 | inactive: 0% | 
54 | CCCCCn1c(=N)c(S(=O)(=O)c2ccc(C)cc2)cc2c(=O)n3cc(C)ccc3nc21 | inactive: 2.3% | 
55 | CC(C)(CC(=O)NCc1ccc(Cl)cc1Cl)CC1=NS(=O)(=O)c2ccccc2N1 | inactive: -0.125% | 
56 | Cn1c2c(c(=O)n(C)c1=O)C(c1ccccc1C(F)(F)F)CC(=O)N2 (centres undefined) | inactive: -4.17% | 
57 | CCOC(=O)c1ccc(CN(Cc2ccc(F)cc2)S(=O)(=O)c2ccc(F)c(C(=O)Nc3ccccc3C(F)(F)F)c2)cc1 | inactive: 1.1% | 
58 | COC(=O)c1ccc(NS(=O)(=O)c2ccc3c(c2)n(C)c(=O)c(=O)n3C)cc1 | inactive: -0.443% | 
59 | CCNC(=O)CC1C(=O)N(c2ccc(F)cc2)C(=O)N1Cc1ccc(OC)c(OC)c1 (centres undefined) | inactive: -9.58% | 
60 | Cc1ccc(C(=O)N2CCN(c3cccc(Cl)c3)CC2)cc1-n1c(C)nc2cccnc21 | inactive: -1.74% | 
61 | CCc1ccccc1N(CC)C(=O)C(=O)Nc1ccc2nc3n(c(=O)c2c1)CCCCC3 | inactive: 1.83% | 
62 | O=C(c1ccc2c(c1)N(Cc1cccc(Cl)c1)C(=O)c1ccccc1S2(=O)=O)N1CCc2ccccc21 | inactive: -0.534% | 
63 | COc1cc(Cl)c(C)cc1NC(=O)C1CCCN(c2ncnc3onc(-c4ccc(F)cc4)c23)C1 (centres undefined) | inactive: -4.33% | 
64 | Cc1cc2c(cc1S(=O)(=O)N(C)CC(=O)Nc1cccc(C#N)c1)OCC(=O)N2 | inactive: -2.25% | 
65 | CCOC(=O)c1cccc(NC(=O)CCn2nc(C)c3c(C)n(-c4ccccc4)nc3c2=O)c1 | inactive: -9.53% | 
66 | COCCCNC(=O)C1CCCN(S(=O)(=O)c2ccc3c(c2)oc(=O)n3C)C1 (centres undefined) | inactive: 9.07% | 
67 | Cc1ccc(C)c(NC(=O)N2CCC(N3CCN(Cc4ccc(F)cc4)C(=O)C3=O)CC2)c1 | inactive: 9.34% | 
68 | COc1ccccc1CNC(=O)c1ccc(CN2CC(=O)N3CCCCC3C2=O)cc1 (centres undefined) | inactive: -3.66% | 
69 | CCN(CC)c1ccc(NC(=O)CN2CCN(CC(=O)Nc3ccccc3OC)CC2)cc1 | inactive: -1.85% | 
70 | CCOCCCn1c(SCC(=O)NCCCOC)nc2c(sc3ccccc32)c1=O | inactive: -8.92% | 
71 | Cc1c(NC(=O)c2ccccc2)cc(C(C)C)c(O)c1S(=O)(=O)c1ccc(Cl)cc1 | inactive: -1.93% | 
72 | Fc1ccc(Nc2ncnc3c2nc2n3CCCC2)cc1 | inactive: -4.34% | 

Row | SMILES | activity change, negative = inhibition | Potency
73 | CCOCCCNC(=O)c1c[nH]c2ccc(S(=O)(=O)Nc3cccc(Cl)c3C)cc2c1=O | inactive: -1.52% | 
74 | CCOC(=O)N1CCc2c(sc3c2c(=O)n(-c2ccc(Cl)cc2)c(=O)n3Cc2cccc(C)c2)C1 | inactive: -1.96% | 
75 | COc1ccccc1N1CCN(S(=O)(=O)c2cc3[nH]c(=O)c(=O)[nH]c3cc2C)CC1 | inactive: 0.677% | 
76 | O=C(NCCS(=O)(=O)N1CCN(c2ccc(F)cc2)CC1)c1cc(=O)c2ccccc2o1 | inactive: 0.966% | 
77 | Cc1ccc(C)c(NC(=O)C(Cc2ccccc2)N2Cc3ccccc3C2=O)c1 (centres undefined) | inactive: -13.2% | 
78 | Cc1ccc2occ(CC(=O)N(Cc3ccc(N(C)C)cc3)C3CCS(=O)(=O)C3)c2c1 (centres undefined) | inactive: -1% | 
79 | CCOc1ccc(CNC(=O)CCC(=O)N2CCSc3ccccc32)cc1 | inactive: -4.44% | 
80 | COc1ccc2nc(N3CCN(C(=O)C4CC4)CC3)sc2c1 | inactive: -0.755% | 
81 | COc1ccc(NC(=O)N2CCc3c([nH]c4ccc(OC)cc34)C2c2ccc(OC)cc2)cc1 (centres undefined) | inactive: 1.73% | 
82 | COC(=O)c1cc2oc3ccccc3c2n1Cc1c(F)cccc1Cl | inactive: 1.65% | 
83 | CCc1cccc(NC(=O)CN2CCCN(Cc3cccc(C)c3)S2(=O)=O)c1 | inactive: 14.7% | 
84 | COc1ccc(N2CCN(C(=O)c3ccc4nc(N5CCC(C)CC5)sc4c3)CC2)cc1 | inactive: -0.186% | 
85 | Cc1ccc(Cl)cc1N(C)C(=O)c1cnc(N2CCOCC2)c2ccccc12 | inactive: -8.35% | 
86 | CCN(CC)C(=O)C1CCCN(c2ncnc3onc(C)c23)C1 (centres undefined) | inactive: 8.95% | 
87 | COc1cccc(-c2nc3c(C#N)c[nH]n3c2NC2CCCCC2)c1OC | inactive: 0.8% | 
88 | CC(NC(=O)c1sc2ncccc2c1-n1cccc1)c1ccccc1 (centres undefined) | inactive: -4.1% | 
89 | O=C(NCC(c1cccnc1)N1CCN(Cc2ccccc2)CC1)C(=O)Nc1cccc(F)c1 (centres undefined) | inactive: 0% | 
90 | Cc1ccc(Cn2c(=O)n(CC3CCC(C(=O)N4CCOCC4)CC3)c(=O)c3sccc32)cc1 (centres undefined) | inactive: 2.56% | 
91 | O=C(CC1Oc2ccc(Cl)cc2NC1=O)NCc1ccccc1 (centres undefined) | inactive: -0.0621% | 
92 | CCOC(=O)CC(NC(=O)Cn1nnc(-c2ccc(C(F)(F)F)cc2)n1)c1ccc(C)cc1 (centres undefined) | inactive: -9.15% | 
93 | COc1ccc(CCNC(=O)CCCCCn2c(SCC(N)=O)nc3cc4c(cc3c2=O)OCO4)cc1OC | inactive: -3.78% | 
94 | Cc1ccc(S(=O)(=O)N2CCCc3cc(NC(=O)c4ccccc4Cl)ccc32)cc1 | inactive: 20.1% | 
